# Measurements taken from the supplement of paper PMC9446081.
# Screen size: about 39,000 compounds; about 220 (0.56%) showed activity. The list shows a part of the results.
# Tested on: Escherichia coli K-12 BW25113
# Test: relative growth (OD600 normalised to plate interquartile mean) (fraction); higher = less growth inhibition, active = 0.2 or less
# Conditions: 50 µM; LB; incubation time: overnight (16-24 h)
# 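Note: static incubation at 37 °C against the wild-type strain, values averaged over two biological replicates.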
row,SMILES,relative growth
1,Cc1nc(C)c(Cl)c(O)c1Cl,inactive: 1.15
2,C[C@@H]1CN([C@H](C)CO)C(=O)c2c(c3ccccc3n2C)-c2ccccc2CO[C@@H]1CN(C)CC1CCCCC1,inactive: 0.985
3,CC(C)NC(=O)Nc1ccc2c(c1)C(=O)N([C@@H](C)CO)C[C@H](C)[C@H](CN(C)Cc1ccc(-c3ccccc3)cc1)O2,inactive: 0.977
4,O[C@@H]1Cc2ccccc2[C@H]1O,inactive: 1
5,O=C(C[C@@H]1C[C@H]2c3cc(NS(=O)(=O)c4ccc(F)cc4)ccc3O[C@H]2[C@@H](CO)O1)N1CCOCC1,inactive: 1.02
6,C=CCC[C@@H](Cc1ccc(F)cc1)C(=O)OC[C@@H](Cc1c[nH]c2ccccc12)NC(=O)[C@H](CC=C)CC(=O)N[C@@H](CO)Cc1ccccc1,inactive: 1.01
7,C[C@@H]1CN([C@@H](C)CO)C(=O)c2cc(NC(=O)Cc3cn(C)c4ccccc34)ccc2O[C@H]1CN(C)C(=O)Nc1cccc2ccccc12,inactive: 1.02
8,COc1cccc(S(=O)(=O)Nc2ccc3c(c2)C(=O)N(C)C[C@@H](OC)[C@@H](C)CN(C(=O)Cc2cccnc2)[C@H](C)CO3)c1,inactive: 1.02
9,C[C@@H]1[C@@H](c2ccccc2)OC(=O)[C@@H]2[C@H]3C(=O)N([C@@H](C)CO)[C@@H]4C(=O)N(Cc5ccccc5)CC=C[C@]34O[C@@H]2/C=C/CCC(=O)N1C,inactive: 1.02
10,COc1ccc(CN(C)C[C@H]2Oc3ccc(NC(=O)CCN4CCOCC4)cc3C(=O)N([C@H](C)CO)C[C@@H]2C)cc1,inactive: 1
11,Cc1cc(C(=O)Nc2cccc3c2O[C@@H](CN(C)S(=O)(=O)c2cn(C)cn2)[C@H](C)CN([C@H](C)CO)C3=O)n(C)n1,inactive: 0.942
12,COc1ccc(C#Cc2ccc3c(c2)O[C@@H](CN(C)C(=O)CN2CCOCC2)[C@@H](C)CN([C@@H](C)CO)S3(=O)=O)cc1,inactive: 0.988
13,C[C@@H]1CN([C@@H](C)CO)C(=O)Cc2cc(NC(=O)c3ccncc3)ccc2O[C@@H]1CN(C)Cc1ccc(Oc2ccccc2)cc1,inactive: 0.985
14,Cc1n[nH]c(=O)n1-c1cccc(C(=O)O)c1,inactive: 0.999
15,CC(C)CN(C[C@@H](OP(=O)(O)O)[C@H](Cc1ccccc1)NC(=O)O[C@H]1CCOC1)S(=O)(=O)c1ccc(N)cc1,inactive: 0.988
16,CC(C)NC(=O)N(C)C[C@@H]1Oc2cc(C#Cc3ccccn3)ccc2S(=O)(=O)N([C@@H](C)CO)C[C@H]1C,inactive: 0.979
17,Cc1ccc(S(=O)(=O)Nc2ccc3c(c2)C(=O)N([C@H](C)CO)C[C@H](C)[C@H](CN(C)C(=O)Nc2ccc4c(c2)OCO4)OCCCC[C@@H](C)O3)cc1,inactive: 0.912
18,Cc1ccc(S(=O)(=O)Nc2ccc3c(c2)C(=O)N([C@H](C)CO)C[C@H](C)[C@H](CN(C)S(=O)(=O)c2cccs2)O3)cc1,inactive: 1.01
19,COc1ccc(NC(=O)Nc2ccc3c(c2)C(=O)N([C@H](C)CO)C[C@H](C)[C@H](CN(C)S(=O)(=O)c2ccc(C)cc2)OCCCC[C@@H](C)O3)cc1,inactive: 1.03
20,C[C@@H]1CCCCO[C@H](CN(C)S(=O)(=O)c2ccc(Cl)cc2)[C@H](C)CN([C@@H](C)CO)C(=O)c2cc(NC(=O)C3CCCCC3)ccc2O1,inactive: 1.02

row,SMILES,relative growth
1,C[C@@H]1CN([C@H](C)CO)C(=O)c2cc(NS(=O)(=O)c3cccs3)ccc2O[C@@H](C)CCCCO[C@@H]1CN(C)Cc1ccc(C(=O)O)cc1,inactive: 0.968
2,C[C@@H]1CCCCO[C@@H](CN(C)C(=O)CCCN(C)C)[C@H](C)CN([C@@H](C)CO)C(=O)c2cc(NS(=O)(=O)c3cn(C)cn3)ccc2O1,inactive: 0.99
3,CCn1cc(-c2ccnc3[nH]c(-c4cccc(CN(C)C)c4)cc23)c(-c2ccc(NC(=O)N(C)C)cc2)n1,inactive: 0.946
4,C[C@H](CO)N1C[C@H](C)[C@H](CN(C)Cc2ccc(-c3ccccc3)cc2)Oc2ccc(NC(=O)Nc3ccc(F)cc3)cc2C1=O,inactive: 0.984
5,N[C@H]1C[C@@H]1c1ccc(-c2cccc(O)c2)cc1,inactive: 0.951
6,Cc1noc(C)c1NC(=O)N(C)C[C@H]1OCCCC[C@H](C)Oc2ccc(NC(=O)C3CCCCC3)cc2C(=O)N([C@@H](C)CO)C[C@@H]1C,inactive: 0.968
7,COc1cccc(S(=O)(=O)Nc2ccc3c(c2)[C@H]2C[C@H](CC(=O)NC4CCCCC4)O[C@H](CO)[C@H]2O3)c1,inactive: 1.01
8,C[C@H](CO)N1C[C@H](C)[C@@H](CN(C)C(=O)Nc2cccc(Oc3ccccn3)c2)OCc2cnnn2CCCC1=O,inactive: 0.984
9,C[C@@H]1CN([C@H](C)CO)C(=O)c2cc(C#CC3(O)CCCC3)cnc2O[C@H]1CN(C)C(=O)Cc1ccncc1,inactive: 0.971
10,O=C(C[C@H]1CC[C@@H]2[C@H](COC[C@H](O)CN2Cc2ccccc2F)O1)N[C@@H]1CCN(Cc2ccccc2)C1,inactive: 0.997
11,COc1ccc(NC(=O)N(C)C[C@H]2Oc3c(NC(=O)c4cc(C)nn4C)cccc3C(=O)N([C@@H](C)CO)C[C@H]2C)cc1,inactive: 0.993
12,O=C(Nc1ccccc1)C1=C[C@H](c2ccc3c(c2)Cc2ccccc2-3)C[C@H](OCc2ccc(CO)cc2)O1,inactive: 1.04
13,CCOc1ccccc1OCCNC(C)Cc1ccc(OC)c(S(N)(=O)=O)c1.Cl (stereo not drawn),inactive: 1.03
14,C[C@@H]1CN([C@@H](C)CO)C(=O)Cc2cc(NC(=O)Nc3ccccc3)ccc2O[C@@H]1CN(C)Cc1ccc(C(=O)Nc2ccccc2N)cc1,inactive: 0.975
15,C[C@H](CO)N1C[C@H](C)[C@H](CN(C)C(=O)Nc2ccc(F)cc2)Oc2ccc(NC(=O)Nc3cccc4ccccc34)cc2C1=O,inactive: 1.01
16,Cc1ccc(S(=O)(=O)N(C)C[C@H]2OCCCC[C@H](C)Oc3ccc(NC(=O)Nc4ccccc4)cc3C(=O)N([C@@H](C)CO)C[C@@H]2C)cc1,inactive: 1.06
17,C[C@H]1CCCCO[C@H](CN(C)CC2CCCCC2)[C@@H](C)CN([C@@H](C)CO)C(=O)c2cc(NC(=O)Nc3ccccc3)ccc2O1,inactive: 0.967
18,COc1ccc(S(=O)(=O)N[C@H]2CC[C@@H](CCNC(=O)CN3CCOCC3)O[C@H]2CO)cc1,inactive: 0.986
19,CC(C)NC(=O)Nc1ccc2c(c1)C(=O)N([C@@H](C)CO)C[C@@H](C)[C@H](CN(C)S(=O)(=O)c1ccc(F)cc1)O2,inactive: 0.981
20,C[C@H](CO)N1C[C@H](C)[C@@H](CN(C)S(C)(=O)=O)Oc2ccc(NC(=O)Nc3ccc(F)cc3)cc2C1=O,inactive: 0.982

row,SMILES,relative growth
1,CN1CCN(C(=O)C[C@H]2CC[C@@H](NC(=O)c3ccc4c(c3)OCO4)[C@H](CO)O2)CC1,inactive: 1.01
2,COc1ccc(NC(=O)N(C)C[C@@H]2OCCCC[C@H](C)Oc3ccc(NS(=O)(=O)c4ccc(F)cc4)cc3C(=O)N([C@H](C)CO)C[C@H]2C)cc1,inactive: 0.921
3,C[C@@H]1CCCCO[C@H](CN(C)C(=O)Nc2ccc(F)cc2)[C@@H](C)CN([C@H](C)CO)C(=O)c2cc(NC(=O)Nc3ccc(C(F)(F)F)cc3)ccc2O1,inactive: 0.993
4,C[C@H](CO)N1C[C@H](C)[C@H](CN(C)Cc2ccc(C(F)(F)F)cc2)OCCCC[C@H](C)Oc2ccc(NC(=O)Nc3ccc(C(F)(F)F)cc3)cc2C1=O,inactive: 1.02
5,O=C(C[C@@H]1C[C@@H]2c3cc(NC(=O)C4CCOCC4)ccc3O[C@@H]2[C@H](CO)O1)NCc1ccc2c(c1)OCO2,inactive: 0.981
6,COc1ccc(NC(=O)N(C)C[C@@H]2OCc3ccccc3-c3c(n(C)c4ccccc34)C(=O)N([C@H](C)CO)C[C@@H]2C)c(OC)c1,inactive: 1.02
7,C[C@H]1CN([C@@H](C)CO)C(=O)Cc2cc(NC(=O)Nc3ccc(C(F)(F)F)cc3)ccc2O[C@H]1CN(C)Cc1ccncc1,inactive: 1
8,C/C=C/c1ccc2c(c1)O[C@@H](CN(C)S(=O)(=O)c1ccccc1OC)[C@@H](C)CN([C@@H](C)CO)S2(=O)=O,inactive: 1.01
9,COc1cc(N2CCO[C@]3(COCCN(CCN(C)C)C3)C2)ncn1,inactive: 1.01
10,C[C@@H]1CN([C@H](C)CO)S(=O)(=O)c2ccc(C#CC(C)(C)O)cc2O[C@H]1CN(C)Cc1ccncc1,inactive: 0.986
11,C[C@@H]1CN([C@@H](C)CO)C(=O)CCCn2cc(nn2)CO[C@H]1CN(C)C(=O)Nc1ccc(C(C)(C)C)cc1,inactive: 1.01
12,COc1ccc(S(=O)(=O)Nc2ccc3c(c2)C(=O)N([C@H](C)CO)C[C@H](C)[C@@H](CN(C)Cc2ccc(C(F)(F)F)cc2)OCCCC[C@H](C)O3)cc1,inactive: 0.899
13,COc1ccc(CN(C)C[C@H]2Oc3ccc(NS(C)(=O)=O)cc3CC(=O)N([C@@H](C)CO)C[C@H]2C)cc1,inactive: 0.844
14,C[C@H]1CN([C@@H](C)CO)C(=O)c2cccc(NS(C)(=O)=O)c2O[C@H]1CN(C)S(=O)(=O)c1cccs1,inactive: 0.987
15,C[C@H](CO)N1C[C@H](C)[C@H](CN(C)Cc2ccc(C(=O)Nc3ccccc3N)cc2)Oc2c(NC(=O)C3CCCCC3)cccc2C1=O,inactive: 1
16,Cc1nc(S(=O)(=O)N[C@H]2CCS(=O)(=O)C2)cn1C,inactive: 1.02
17,C[C@@H]1CCCCO[C@@H](CN(C)S(=O)(=O)c2cn(C)cn2)[C@@H](C)CN([C@H](C)CO)C(=O)c2cc(NC(=O)Nc3ccc(C(F)(F)F)cc3)ccc2O1,inactive: 1.02
18,COc1cc(Cc2cc3c(c(CCc4ccccc4)n2)[Si](C(C)C)(C(C)C)O[C@H]3c2ccccc2)cc(OC)c1OC,inactive: 0.989
